The assay deals with Heat shock protein HSP 90-alpha (Homo sapiens) (UniProt P07900). Kind of assay: Hsp90 blockade concentration-response – dose response (AID 712). The settings on record: Hsp90 inhibition assay.

For part of its entries the source gives two or more results. This is not the full list of results. There may be further records. How the calls were made is not given here. The records of an entry repeat one measurement (runs, samples, wells, individuals or studies). Brackets tell where a record comes from. The letters are not those of the source and start again with each entry.

For orientation: IC50 means the point on the concentration scale where inhibition reaches its midpoint. Read a low IC50 as greater potency in that assay. `Nc1ccc2ncccc2c1`: the IC50 result is “inactive [sample A] and inactive: > 50 µM [sample B]”.
For the molecule `Nc1ccc(O)c2ncccc12`, the IC50 was 27.6 µM [sample A] and 1.56 µM [sample B].

(Values after PubChem BioAssay AID712 (Emory University Molecular Libraries Screening Center, 2007).)
